Assay results as given in PubChem BioAssay (NCI).
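Growth conditions: 96-well plates. Treatment: test compound, 48 hours, 5 concentrations. Analysis: linear interpolation between bracketing concentrations; unreached endpoints set to highest concentration. The concentration for 50% growth inhibition is given as GI50.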 A number of entries come with more than one value. This is not the full list of results. An entry can have further records. A record mostly stands for its own series of concentrations, not given here; a value can be the end of its range.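 TGI: concentration producing complete growth inhibition.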

Tested on: MDA-MB-468 breast
Assay: growth of human tumour cells (NCI), 48 h

## CC(=O)c1cnc2ccc(-c3cc(Cl)c(O)c(Cl)c3)nc2c1NC1CCC(CN(C)C)CC1 (configuration not stated)
  GI50: 7.11 nM and 179 nM
  TGI: 47.9 nM and 1.32 µM
